Hit rate of the full screen: of about 48,000 compounds, about 450 (0.94%) were called active. Another 19% or so got no clear call; they are omitted. Calls follow the shape of the dose curve; as a rule, active = well fitted inhibition curve with a large enough effect; inconclusive = small, poorly fitted or top-dose-only effect; inactive = no such curve, though single readings can be large or run the other way. The list shows a part of the results.
Assay: Primary qHTS for Identification of Small Molecule Inhibitors of Huntingtin Promoter Activity; also: nearly all actives have a fitted effect of over 50% in size
Conditions: HEK293 HTT promoter firefly luciferase reporter (activity 0% = vehicle and -100% = no light), 24 h; series mostly up to 57.5 µM; activity change, negative = inhibition: at the top concentration
In short: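 HEK293 Fluc reporter, 2,500 cells/well, 24 h pre-culture; cpds up to 57.5 uM final, 24 h 37 degrees C; Dual-Glo, 10 min RT; normalized vehicle = 0%, zero RLU = -100%.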

Activity change, negative = inhibition, inactive:
O=C(NC1CC(=O)N(c2cccc(F)c2)C1)c1cccs1 (stereo not drawn) -1.55%
Cc1cccc(-n2ncc(C(=O)N3CCOCC3)c2C2CCN(C(=O)OC(C)(C)C)CC2)c1 3.78%
CC(C)N(C(=O)Cn1cc(SCC(=O)Nc2ccccc2F)c2ccccc21)C(C)C -29.8%
CC(C)C(=O)Nc1ccc2nc(SCC(=O)N3CCCC3)sc2c1 21.4%
CCCN(C(=O)c1cc2c(=O)oc3ccccc3c2s1)c1ccc(CC)cc1 -13.2%
CCc1ccc(OCC(=O)NC(Cc2c[nH]c3ccccc23)C(=O)O)cc1 (stereo not drawn) -10.6%
Cc1c(Cl)cccc1NC(=O)N1CCN(C(=O)c2nsc3ccccc23)CC1 -21.3%
Cc1ccccc1Nc1cc(C(=O)NCCCN2CCN(c3cccc(Cl)c3)CC2)c2ccccc2n1 -18.2%
CCc1ccc(NC(=O)c2ccc(CN3CC(=O)N4CCCCC4C3=O)cc2)cc1 (stereo not drawn) -29.5%
Cc1ccc(C(C)C)c(OCCSc2nc(-c3ccccc3F)nc3cc(=O)[nH]n23)c1 -4.23%
COc1cccc(-n2c(=O)c3c(C)c(C)sc3n(CC(=O)NCCc3ccc(OC)c(OC)c3)c2=O)c1 -2.44%
COc1ccc(OC)c(NC(=O)CSc2ccc(-c3cccs3)nn2)c1 -24.3%
COc1cc(OC)c(NC(=O)C2CCN(S(=O)(=O)c3c(C)noc3/C=C/c3c(C)cc(C)cc3C)CC2)cc1Cl -8.33%
CN(Cc1ccccc1)C(=O)c1cn(C)c2ccc(S(=O)(=O)N3CCCCC3)cc2c1=O -19.2%
COc1cccc(OCc2nc3ccccc3n2CCOc2ccc(C)cc2)c1 -20.3%
COc1ccc2[nH]cc(CCNC(C)=O)c2c1
CC12CN3CC(c4ccccc4)(CN(C1)C3c1ccc(O)cc1)C2=O (stereo not drawn) 8.45%
Cn1c(=O)oc2cc(S(=O)(=O)NC(Cc3ccccc3)C(=O)Nc3ccc(F)cc3)ccc21 (stereo not drawn) -23.9%
CCOC(=O)c1c(NC(=O)C(C)Sc2cn(CCNC(=O)c3c(F)cccc3F)c3ccccc23)sc2c1CCC2 (stereo not drawn) -20.9%
Cc1ccc(Sc2c(C)nn(-c3ccccc3)c2OC(=O)C(C)(C)C)cc1 -10.5%
COc1ccc(OC)c(NS(=O)(=O)c2cc3c(cc2Cl)N(C(C)=O)CCO3)c1 -16.8%
CCOc1ccc(NC(=O)CC2C(=O)N(c3ccc(F)cc3)C(=O)N2Cc2ccc(OC)c(OC)c2)cc1 (stereo not drawn) -15.2%
COC(=O)c1c(NC(=O)C(C)Oc2ccc(Cl)c(C)c2)sc(C)c1C (stereo not drawn) -15.4%
CCN1C(=O)c2ccccc2S(=O)c2ccc(C(=O)NCc3ccc(OC)cc3)cc21 (stereo not drawn) -0.989%
O=C(CSc1nc2cc(C(=O)NC3CCCC3)ccc2c(=O)n1CC1CCCO1)c1cccc(Cl)c1 (stereo not drawn) -21.7%
COc1ccccc1NC(=O)CSc1nnc(N)s1 -3.83%
COc1ccc(CCNc2oc(/C=C/c3cc(OC)c(OC)c(OC)c3)nc2C#N)cc1OC -5.83%
CN(C)c1ccc(CN(Cc2ccco2)C(=O)c2ccc(C(C)(C)C)cc2)cc1 -28.9%
Cc1ccc(-c2nc3nc(C)cc(N4CCN(c5cccc(C)c5C)CC4)n3n2)cc1 3.31%
Cc1oc(-c2cccc(Cl)c2)nc1CSc1nncn2c1cc1occc12 -1.02%
CCc1ccc(CNC(=O)c2cc(=O)[nH]c3ccc(S(=O)(=O)N4CCCCC4)cc23)cc1 -1.39%
Cc1c(Cl)ccc2sc(N3CCN(C(=O)C(C)C)CC3)nc12 -20.6%
CCOC(=O)c1c(C)oc2nc(C)nc(Nc3ccc(C)c(Cl)c3)c12 -6.54%
CCOC(=O)c1c(NC(=O)c2cc(C(C)C)on2)sc(C(C)=O)c1C 6.14%
COc1ccc(OCC(=O)Nc2nnc(S(=O)(=O)N3CCc4ccccc43)s2)cc1 -7.25%
CCOc1ccc(C(=O)/C=C/c2cn(CC(O)CN3CCCCCC3)c3ccccc23)cc1 (stereo not drawn) -4.85%
CCOC(=O)c1ccccc1NC(=O)C1CCN(c2ncnc3c2nc2n3CCCCC2)CC1 -11.7%
CCOc1ccc(C(=O)c2cn(CC(=O)Nc3ccc(OC)cc3)c3cc4c(cc3c2=O)OCCO4)cc1 2.16%
COc1ccc2[nH]c(=O)c(CN(C(=O)c3cccc(Cl)c3)c3ccccc3C)cc2c1 -15.4%
Cc1cc2nnc(SCc3ccc(F)cc3)n2c2ccccc12 -4.16%
CC(C)CCn1c(=O)c2cccnc2n(CC(=O)Nc2ccc(F)cc2)c1=O -21.2%
CC1CN(c2ccc(Cl)cc2)c2nc3c(c(=O)n(CC(=O)O)c(=O)n3C)n2C1 (stereo not drawn) -0.344%
COc1ccc2occ(CC(=O)Nc3ccc(S(=O)(=O)Nc4nccc(C)n4)cc3)c2c1 -15.5%
Cc1ccc(CNC(=O)c2sc3nc[nH]c(=O)c3c2C)cc1 -10.4%
CN1CCN(C2(CNC(=O)c3ccc(C(C)(C)C)cc3)CCCCC2)CC1 -12.2%
C#CCn1c(C2CC(=O)N(c3ccc(OC)cc3)C2)nc2ccccc21 (stereo not drawn) -10%
COc1cccc(CNC(=O)Cn2c(=O)ccc3cc(S(=O)(=O)N4CCC(C)CC4)ccc32)c1 -15%
COc1ccc(-n2c3c(c(=O)[nH]c2=O)C(NC(=O)c2ccccc2Cl)(C(F)(F)F)C(=O)N3)cc1 (stereo not drawn) -8.81%
COc1cccc(C(=O)NCc2ccc3c(c2)CCN3C(=O)c2ccncc2)c1 -1.52%
COc1ccccc1-c1nc(SCC(=O)c2ccccc2)n[nH]1 6.79%
COc1ccc(CNc2nc(SCc3ccc(Cl)cc3)nc3ccccc23)cc1 9.2%
CCCCCN1C(C(=O)c2ccccc2)=C(NC(=O)c2ccc(OC)cc2)c2ccccc2S1(=O)=O -14.9%
Cc1cc(C)c(NC(=O)C(C)n2c(=O)c(C(F)(F)F)nc3ccccc32)c(C)c1 (stereo not drawn) -26.1%
CCOC(=O)CC(NC(=O)CCc1c(C)nc2c(c(C)nn2-c2ccc(C)c(C)c2)c1C)c1ccc(C)cc1 (stereo not drawn) -13.2%
Cc1cc(C)cc(OCC(=O)Nc2nc3c(s2)CC(C(C)(C)C)CC3)c1 (stereo not drawn) -18.2%
Cc1cccc(-n2ncc(C(=O)N3CCN(C4CCCCC4)CC3)c2C2CCN(C(=O)OC(C)(C)C)CC2)c1 -6.94%
COc1ccc(OC)c2sc(NC(=O)c3ccc(S(=O)(=O)N4CCCC4)cc3)nc12 -11.1%
CC(NC(=O)c1ccc2c(c1)CCN2S(C)(=O)=O)c1ccccc1 (stereo not drawn) -8.52%
Cc1ccc(CNC(=O)c2ccc3c(c2)nc(C)n3-c2cccc(F)c2)cc1 -5.47%
CCOc1ccc(NC(=O)CSC2=Nc3ccccc3C3=NC(CCC(=O)NCc4ccccc4)C(=O)N23)cc1 (stereo not drawn) -10.6%
Cc1cc(C(F)(F)F)n2nc(-c3ccc(Br)cc3)cc2n1 -6.77%
CCCCOc1ccc(-c2nn(-c3ccccc3)cc2C2NC(=O)NC(C)=C2C(=O)OCC)cc1 (stereo not drawn) -2.29%
COc1ccc(OCC(=O)NCc2ccc3c(c2)CCN3C(=O)c2ccccc2)cc1 -24.7%
O=C(c1cc2ccccc2oc1=O)N1CCN(c2ccc(Cl)cc2)CC1 -23.8%
O=C(NCCc1ccccc1)c1cnc2sc(N3CCCCCC3)nn2c1=O 18.5%
Cc1cc2oc(C(=O)Nc3ccc(S(N)(=O)=O)cc3)cc(=O)c2cc1C -0.926% [at 11.5 µM]
C[C@]12CC[C@H](O)CC1=CCC1C2CC[C@]2(C)C(n3cnc4ccccc43)=CCC12 (stereo partly drawn) 6.4%
CCc1cccc(NC(=O)CN2C(=O)COc3ccc(S(=O)(=O)Nc4ccccc4)cc32)c1 -28.3%
Cc1ccc(OCc2nc(-c3ccc(C(=O)N4CCN(c5ccccc5F)CC4)cc3)oc2C)cc1 -18.6%
O=C1OC(C(=O)Nc2cccc(Br)c2)Cc2ccccc21 (stereo not drawn) 0.688%
COc1ccc(CNC(=O)Cn2c(SCC(=O)Nc3ccc(OC)cc3)nc3ccccc32)cc1 -15%
Cc1cccc(-n2ncc(C(=O)N3CCN(c4ccc(Cl)cc4)CC3)c2C2CCN(C(=O)OC(C)(C)C)CC2)c1 4.03%
CCc1ccc2nc(N(CCN(CC)CC)C(=O)c3ccco3)sc2c1 24.5%
Cc1ccc(NC(=O)c2ccc(-c3cccc(Cl)c3C)o2)cc1 13.6%
COc1ccc(OC)c(CNC(=O)c2cc3c(-c4ccc(OC)c(OC)c4)nn(C)c3s2)c1 -9.24%
CN(C)S(=O)(=O)N(CC(=O)NCCSCc1ccccc1)c1ccccc1 -12.1%
Cc1ccc(C)c(NC(=O)CN2CCCN(Cc3cccc(Cl)c3)S2(=O)=O)c1 -18.8%
Cc1cc(OC(C)C(=O)Nc2c(C(=O)c3ccc(F)cc3)oc3ccccc23)ccc1Cl (stereo not drawn) -9.48%
CCc1ccc(Sc2cc(C(=O)NCc3ccccc3OC)c3ccccc3n2)cc1 -28.4%
COC(=O)c1ccc(OCC2c3cc(OC)c(OC)cc3CCN2C(=O)Cc2ccc(OC)cc2)cc1 (stereo not drawn) -27.8%
CCOc1ccc(N2CC(NC(=O)C(=O)c3c[nH]c4ccccc34)CC2=O)cc1 (stereo not drawn) -9.76%
CCn1c(=O)cc(SCC(=O)NCc2ccc(F)cc2Cl)c2ccccc21 -24.7%
Cc1nn2c(-c3cccc(NC(=O)c4ccccc4)c3)nnc2c2ccccc12 5.07%
COc1ccc(-c2cn3c(n2)sc2cc(C(=O)Nc4ccc(C)c(C)c4)ccc23)cc1 -1.69%
Cc1cccc(N2CCN(C(=O)CCc3nnc4n(CC(C)C)c(=O)c5ccccc5n34)CC2)c1C -20.8%
COc1ccc(-c2cc(C)no2)cc1S(=O)(=O)N1CCOc2ccccc21 -22.5%
CCOC(=O)c1c(C)oc2ccc(N(C(=O)Oc3ccccc3)S(=O)(=O)c3ccc(CC)cc3)cc12 -25.1%
CC(C)c1ccc(OCC(=O)NC(Cc2c[nH]c3ccccc23)C(=O)O)cc1 (stereo not drawn) -6.38%
O=C(Nc1ccc(F)cc1)c1oc2ccccc2c1NC(=O)C12CC3CC(CC(C3)C1)C2 -9.3%
Cc1cccc(OC(=O)CSc2nnc(CNC(=O)c3ccccc3)o2)c1C -11.4%
CCc1nnc(SCc2cc(C)ccc2C)c2cc3sc(C)cc3n12 -19.9%
CCOC(=O)c1c(C)[nH]c(C)c1S(=O)(=O)N1CCC(C(=O)N2CCN(c3ccccc3F)CC2)CC1 -21.6%
COc1ccc(C2CC(=O)c3cc(-c4nc(-c5ccc(Cl)cc5)c(C)s4)c(=O)[nH]c3C2)cc1 (stereo not drawn) -3.96%

Source: PubChem BioAssay AID1508623 (National Center for Advancing Translational Sciences (NCATS), 2021)
